Measured values: patent US20250170257A1 (NANOLATTIX BIOTECHNOLOGY, published 2025)

Target: tissue factor on the surface of tumor cells (human, UniProt P13726 33-295)
Test: cell-based or functional assay

Sequence of UniProt P13726 (P13726 33-295): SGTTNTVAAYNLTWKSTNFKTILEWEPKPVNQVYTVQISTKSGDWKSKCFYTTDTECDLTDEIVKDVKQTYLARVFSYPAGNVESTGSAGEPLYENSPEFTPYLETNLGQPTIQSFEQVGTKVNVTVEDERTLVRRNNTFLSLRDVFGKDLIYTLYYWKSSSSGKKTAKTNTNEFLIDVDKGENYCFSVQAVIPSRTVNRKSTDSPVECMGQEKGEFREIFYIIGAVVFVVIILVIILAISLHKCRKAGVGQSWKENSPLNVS

B1: antibody MAb01-ADC drug (MAb01 coupled to Mc-VC-PAB-MMAE) (other)
heavy: QIQLVQSGPELVKPGASVQVSCKTSGYSFTDYNVYWVRQSPAKGIEWIGYIDPYNGLTIYEQNFRGKGTLSLDHSTSTAYMELNSLRYEDTAVYFCARDVTTALDFWGQGTSVTVSSEF[… human IgG1 constant region …]
light: DIQMTQSPASISASIGERVTITCLASQTIDTWLAWFLQKPGRSPNLLIYAATNLADGVPYRFSASGSGNDFSLTISSLNPEDVATYYCQQVYSSPFTFGQGNKLEIRRTVAAPSVFIFPPSDEQLKSGTASVVCLLNNFYPREAKVQWKVDNALQSGNSQESVTEQDSKDSTYSLSSTLTLSKADYEKHKVYACEVTHQGLSSPVTKSFNRGEC
modifications: Mc-VC-PAB-MMAE coupled after TCEP reduction, DAR 4.15 (sites not given)
IC50 of cell survival (CCK-8), Cervical Cancer Cell Hela: 0.0436 nM
IC50 of cell survival (CCK-8), Colon cancer cell SW620: 0.463 nM
IC50 of cell survival (CCK-8), In-situ adenocarcinoma cells BXPC: 0.0308 nM
IC50 of cell survival (CCK-8), Non-small cell lung cancer A549: 0.451 nM
IC50 of cell survival (CCK-8), Ovarian cancer cell SK-OV-3: 0.0136 nM
